# Data as given in PubChem BioAssay (Tox21).
# Where “and” joins values, the source holds several entries; their conditions need not be identical. Identical values can stand only once. Inconclusive means that the source gave no clear call. Such entries were picked first, then a sample of the others. For part of these data: Where the call is inconclusive, the potency comes from a doubtful curve fit. Calls of active or inactive are those of the source. Unless noted, calls come from the whole dose curve; as a rule, active = well fitted cell-killing curve with a large enough effect in the repeat runs; inconclusive = weak or mixed curves; inactive = no such curve, though single readings can be large or run the other way.
# Target: Peroxisome proliferator-activated receptor delta (Homo sapiens) (UniProt Q03181)
# Sequence of UniProt Q03181 (Q03181 whole entry, looked up): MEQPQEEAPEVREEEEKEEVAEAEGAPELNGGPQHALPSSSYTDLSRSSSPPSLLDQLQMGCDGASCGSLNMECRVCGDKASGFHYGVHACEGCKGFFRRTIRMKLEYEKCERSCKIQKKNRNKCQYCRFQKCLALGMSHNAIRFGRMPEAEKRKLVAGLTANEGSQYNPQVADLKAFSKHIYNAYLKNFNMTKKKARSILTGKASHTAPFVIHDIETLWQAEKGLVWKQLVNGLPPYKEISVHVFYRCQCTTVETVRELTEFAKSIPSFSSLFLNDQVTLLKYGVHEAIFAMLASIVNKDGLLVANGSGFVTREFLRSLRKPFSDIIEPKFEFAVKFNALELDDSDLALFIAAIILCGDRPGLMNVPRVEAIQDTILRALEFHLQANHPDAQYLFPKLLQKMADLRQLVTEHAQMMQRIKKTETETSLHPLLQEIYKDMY
# Assay: qHTS assay to identify small molecule agonists of the peroxisome proliferator-activated receptor delta (PPARd) signaling pathway (AID 743212; calls by dose curve;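 note: HEK293H cells with PPARd UAS beta-lactamase reporter GeneBLAzer system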)
# Conditions: HEK293H PPARd-UAS-bla, beta-lactamase FRET ratio, 17 h; activation: at 62.6 µM (top of the series) unless noted
# In short: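 HEK293H PPARd-bla cells; 5 h preincubation 37 C/5% CO2; compound (DMSO) 37 C; LiveBLAzer B/G FRET substrate 2 h RT; fluorescence intensity.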
# % is set by controls: 0 for no effect and ±100 for the full control effect; tags give direction and shape of the fitted curve or compound fluorescence and quenching.
SMILES,Potency,activation
Cc1ccc(C(C)(C)O)cc1,inactive,–
Cc1ccc(NC(N)=O)cc1,inactive,–
C=C[C@H]1CN2CC[C@H]1C[C@@H]2[C@@H](O)c1ccnc2ccc(OC)cc12,–,inconclusive: -1.63%

# Tested on: not listed separately
# Assay: qHTS assay to identify small molecule antagonists of the peroxisome proliferator-activated receptor delta (PPARd) signaling pathway - cell viability counter screen (AID 743213); note: nearly all actives have a fitted effect of over 50% in size; note: potency is the fitted concentration of half-maximal effect
# Conditions: PPARd-bla HEK293H viability, CellTiter-Glo luminescence, 17 h; viability change, negative = cytotoxic: at 62 µM (top of the series) unless noted
# In short: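 CellTiter-Glo was added to PPARd-bla HEK293H wells following 17 h compound treatment in the presence of 300 nM L165041. Luminescence was recorded after 30 min at room temperature.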
SMILES,Potency,"viability change, negative = cytotoxic"
Cc1c(O)cccc1C(=O)N[C@@H](CSc1ccccc1)[C@H](O)CN1C[C@H]2CCCC[C@H]2C[C@H]1C(=O)NC(C)(C)C,active: 15.1 µM and active: 23.7 µM,–
CC[C@H]1CN2CCc3cc(OC)c(OC)cc3[C@@H]2C[C@@H]1C[C@H]1NCCc2cc(OC)c(OC)cc21,"inconclusive: 43.8 µM [cytotoxic, partial curve, poor fit] and inconclusive: 2.66 µM [cytotoxic, full curve]",–
CN1CCCN=C1COC(=O)C(O)(c1ccccc1)C1CCCCC1 (stereo unspecified),"inconclusive: 18.8 µM [cytotoxic, partial curve, poor fit]",–
CCCCCCCC/C=C\CCCCCCCC(=O)OCC,"inconclusive: 12.3 µM [cytotoxic, single point]",–
Cc1ccc(NC(N)=O)cc1,–,inconclusive: 5.69% [cytotoxic] [at 80.4 µM]
C/C=C/c1ccc(O)c(OC)c1,"inconclusive: 0.0347 µM [cytotoxic, full curve, poor fit]",–
CN(C)c1ccc(N=NS(=O)(=O)O)cc1,"inconclusive: 0.512 µM [cytotoxic, single point]",–
[Cl][In]([Cl])[Cl],"inconclusive: 0.0138 µM [cytotoxic, full curve, poor fit]",–
CN(C)CCOC(c1ccccc1)c1ccccc1 (tested in a mixture with another compound),"inconclusive: 1.39 µM [cytotoxic, partial curve, poor fit]",–
CNCCC(Oc1ccc(C(F)(F)F)cc1)c1ccccc1 (stereo unspecified),active: 17.2 µM and active: 21.1 µM,–

# Target: Peroxisome proliferator-activated receptor delta (Homo sapiens) (UniProt Q03181)
# Assay: qHTS assay to identify small molecule antagonists of the peroxisome proliferator-activated receptor delta (PPARd) signaling pathway (AID 743215; active = well fitted inhibition curve with a large enough effect in the signal ratio in the repeat runs, not every such curve was filed as active; inconclusive = weak or mixed curves, or effect the other way; inactive = no such curve, though single readings can be large or run the other way; the % refers to the signal ratio;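 note: cells stimulated with agonist L165041 at 300 nM final during compound exposure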; note: potency is the fitted concentration of half-maximal effect)
# Conditions: HEK293H PPARd-UAS-bla, beta-lactamase FRET ratio, antagonist, 17 h; ratio activity, negative = inhibition: at 62 µM (top of the series) unless noted
# In short: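 HEK293H UAS-bla, PPARd; agonist L165041 300 nM final with cpd in DMSO; 37 C 17 h; FRET substrate, RT 2 h; fluorescence intensity.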
SMILES,"ratio activity, negative = inhibition",Potency
CCC(=O)C1CC(C(C)C)CC=C1C (stereo unspecified),inconclusive: 11.6%,–
CC(=O)c1ccc([N+](=O)[O-])cc1,–,inactive
Cc1ccc(C(C)(C)O)cc1,–,inactive
CCCCCCCC/C=C\CCCCCCCC(=O)OCC,–,"inconclusive: 174 nM [rising, full curve, poor fit]"
Clc1sc(Cl)c(Cl)c1Cl,–,inactive
CN(C)c1ccc(N=NS(=O)(=O)O)cc1,–,"inconclusive: 13 nM [fluorescent, full curve, poor fit]"
[Cl][In]([Cl])[Cl],–,inconclusive: 17400 nM [fluorescent]
CCCCCCCCCCCC(=O)OC,–,inactive
